This note sets out measurements from PubChem BioAssay AID493208 (National Center for Advancing Translational Sciences (NCATS), 2011).

The campaign covered roughly 44,000 compounds. About 340 (0.77%) were called active. Inconclusive results (about 5%) are left out. Calls follow the shape of the dose curve; as a rule, active = well fitted inhibition curve with a large enough effect; inconclusive = small, poorly fitted or top-dose-only effect; inactive = flat fitted curve, though single readings scatter. The list shows a part of the results.
Potency is read from the fitted curve at half-maximal effect.

This assay is described as follows: Acumen qHTS Assay for Inhibitors of the mTORC1 Signaling Pathway in MEF (Tsc2-/-, p53-/-) Cells: Sytravon. Also: nearly all actives have a fitted effect of over 50% in size.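 As to activity change, negative = inhibition: plate controls were DMSO for no effect and rapamycin for full effect.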 The following applies: phospho-rpS6 immunofluorescence/PI, 24 h; series mostly up to 38.3 µM; activity change, negative = inhibition: at the top concentration. The method, boiled down: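 Tsc2-/-, p53-/- mouse embryonic fibroblasts (empty-vector line) exposed to compound 24 hrs at 37 C, fixed, immunostained for phospho-rpS6 and counterstained with propidium iodide. Acumen laser scanning gives % positive cells from Alexa 488/PI ratio, thresholded using 7.5 nM rapamycin; PI count gives viability.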
(Quantitative high-throughput screening tests each substance at several concentrations.)
Consider `COc1ccc(-n2nc3c(N4CCC(C(=O)N5CCC(C)CC5)CC4)nnc(C)c3c2C)cc1`, for which the “activity change, negative = inhibition” value is inactive: -9.65%.
As to `COc1ccc(CNC(=O)c2ccc(Cn3c(=O)c4cccn4c4cccnc43)cc2)c(OC)c1`, the “activity change, negative = inhibition” value is inactive: 2.51%.
Same read-out and setting: for `Cc1ccc(O)c(NC(=O)c2cc(-c3ccc(F)cc3)no2)c1` the value was inactive: 1.1%.
Consider `CCOc1ccc(-n2ccnc2SCC(=O)Nc2cc(C)ccc2C)cc1`, for which the “activity change, negative = inhibition” value is inactive: -1.35%.
On the same count and under the same terms, the figure for `O=C(C1CCC1)N1CCCc2cc(S(=O)(=O)N3CCN(c4cccc(Cl)c4)CC3)ccc21` is inactive: 2.26%; for `Cc1ccc(C)c(NC(=O)C(=O)NCCCN2CCOCC2)c1` it is inactive: -4.8%; for `Cc1onc(-c2ccccc2Cl)c1C(=O)Oc1ccc(Cl)cc1Cl` it is inactive: 6.39%.
Still for that read-out and setting: the figure for `CCOc1ccccc1NC(=O)COC(=O)CC(C)(C)CC1=NS(=O)(=O)c2ccccc2N1` is inactive: -19%; for `O=C(NCCCN1CCN(c2ccccc2)CC1)c1sc2ncccc2c1-n1cccc1` it is inactive: 1.32%; for `CCOc1ccc(CCNC(=O)c2cnc3c(-c4ccc(F)cc4)c(C)nn3c2C)cc1` it is inactive: 1.21%.
Same read-out and setting: the figure for `COc1ccc(N(C(=O)c2ccccc2C)S(=O)(=O)c2ccc(Cl)cc2)cc1` is inactive: -4.08%; for `COc1cc(S(=O)(=O)NCCc2c(C)[nH]c3ccc(C)cc23)ccc1Br` it is inactive: 1.22%; for `Nc1ncc(S(=O)(=O)NCc2ccccc2)cn1` it is inactive: -1.11%.
Turning to `CN1C(C(=O)Nc2cccc(O)c2)=CC(c2cccs2)=NS1(=O)=O`, the “activity change, negative = inhibition” value was inactive: 5.9%.
For the compound `COc1ccc(C(=O)c2cn(Cc3ccccc3)c3ccccc3c2=O)cc1OC`, the “activity change, negative = inhibition” value is inactive: -3.85%.
As to `O=C(NCCc1nc2ccccc2n1Cc1ccccc1F)c1ccc(F)cc1`, the “activity change, negative = inhibition” value was inactive: 2.42%.
Regarding `COc1ccc(CN(C)c2ccc(-c3nc(-c4ccc(OC)c(OC)c4)no3)cc2[N+](=O)[O-])cc1`, the “activity change, negative = inhibition” value was inactive: 0.251%.
Regarding `CCOc1ccc2nc(Cl)c(C3CC(c4ccc(C)cc4)=NN3C(=O)CCC(=O)O)cc2c1` (stereo not drawn), the “activity change, negative = inhibition” value was inactive: 4.31%.
Still for that read-out and setting: for `Cc1cccc(N2CCN(C(=O)C3CCN(C(=O)c4cc5sccc5n4C)CC3)CC2C)c1` (stereo not drawn) the value was inactive: -0.0402%; for `Cc1c(Cl)cccc1NC(=O)CCS(=O)(=O)c1ccc2c(c1)CC(C)N2C(=O)C1CC1` (stereo not drawn), inactive: 0.0211%.
On to `CCC(C)S(=O)(=O)c1oc(-c2cccs2)nc1S(=O)(=O)c1ccccc1` (stereo not drawn), for which the Potency is active: 1170 nM.
With `COc1cn(CC(=O)Nc2cc(C)cc(C)c2)c(CN2CCCCC2)cc1=O`, the “activity change, negative = inhibition” value was inactive: -9.75%.
The same measure, in the same setting: for `CCOc1ccccc1CNCc1c(C(=O)O)c(C)n(Cc2ccc(C)cc2)c1C` the value was inactive: 0.909%; for `CN1CCc2nc3sc(C(=O)c4ccc(F)cc4)c(N)c3cc2C1`, inactive: -18.2%; for `COc1cccc(-c2nnc(SCC(=O)N(C)C3CCCCC3)o2)c1`, inactive: -8.61%.
For the compound `CN1C(=O)c2cccc3c(S(=O)(=O)Nc4cccc(C(=O)O)c4)ccc1c23`, the “activity change, negative = inhibition” value is inactive: -1.59%.
Take `CCOc1ccc(NC(=O)CN(Cc2ccccc2)S(=O)(=O)c2ccc3nc(C)sc3c2)cc1`: the “activity change, negative = inhibition” value is inactive: -16.2%.
`CCOc1ccc(CCNC(=O)Cn2c(-c3cccs3)cc3ccccc32)cc1`: the “activity change, negative = inhibition” value was inactive: -7.2%.
As for `CN(c1ccc(F)cc1)S(=O)(=O)N1CCCC(C(=O)NCc2ccccc2Cl)C1` (stereo not drawn), the “activity change, negative = inhibition” value is inactive: -24%.
Same read-out and setting: for `CCN(CC)S(=O)(=O)c1ccc(OC)c(NC(=O)c2sc3ccccc3c2Cl)c1` the value was inactive: 5.65%; for `Cc1ccc2c(c1)c1c(c(=O)n(Cc3ccccc3)c(=O)n1Cc1ccccc1F)n2C`, inactive: -0.907%; for `Cc1cccc(NC(=O)c2oc3ccccc3c2NC(=O)c2cc(=O)c3ccccc3o2)c1`, inactive: 7.81%.
In the case of `CCOc1ccc(N2CC(NC(=O)c3ccc(Cl)cc3)CC2=O)cc1` (stereo not drawn), the “activity change, negative = inhibition” value was inactive: -7.1%.
The same measure, in the same setting: the figure for `CCOC(=O)N1CCc2c(sc3c2c(=O)n(Cc2ccccc2)c(=O)n3CC(=O)Nc2ccc(F)cc2)C1` is inactive: -7.17%; for `CNC(=O)CN1C(=O)COc2ccc(S(=O)(=O)N3CCCCCC3)cc21` it is inactive: 0.506%; for `Fc1ccc(C(c2nnc(-c3ccccc3)o2)N2CCN(c3cccc(Cl)c3)CC2)cc1` (stereo not drawn) it is inactive: -3.31%.
The same measure, in the same setting: the figure for `CCc1ccccc1NC(=O)CSc1nncn2c1cc1oc(C)cc12` is inactive: 2.87%; for `COc1ccc(CN2C(=O)C(NC(=O)c3cccc(C)c3)(C(F)(F)F)N=C2c2ccccc2)cc1` (stereo not drawn) it is inactive: 6.14%.
Regarding `Cn1c2ccccc2c2cnn(CC(=O)NCCCN3CCCCC3)c(=O)c21`, the “activity change, negative = inhibition” value was inactive: -0.431%.
Same read-out and setting: the figure for `CCOc1ccc(NC(=O)CSc2cn(CCNC(=O)c3ccccc3F)c3ccccc23)cc1` is inactive: -8.22%; for `CCOC(=O)C(CC)n1nnc2sc(-c3ccccc3)cc2c1=O` (stereo not drawn) it is inactive: 1.25%; for `CC(=O)c1cccc(NC(=O)CSc2nnc3ccc(-c4ccc(Br)cc4)nn23)c1` it is inactive: -3.23%.
Still for that read-out and setting: the figure for `O=C(NCCS(=O)(=O)N1CCN(c2ccc(F)cc2)CC1)C(c1ccccc1)c1ccccc1` is inactive: -0.47%.
On the same count and under the same terms, for `Cc1ccc2oc(=O)c3cnn(CC(=O)N4CCN(c5ccc(F)cc5)CC4)c3c2c1` the value was inactive: 2.06%; for `Cc1ccc(CNC(=O)CSc2nc3c(sc4ccccc43)c(=O)n2CCCOC(C)C)cc1`, inactive: 0.165%; for `COc1ccc(OC)c(CCNC(=O)c2cc3c(s2)-c2c(C)cccc2OC3)c1`, inactive: -8.39%.
For `Cc1ccc(-n2c(=O)c3sc4ccccc4c3n(CC(=O)NC3CCCC3)c2=O)cc1C`, the “activity change, negative = inhibition” value is inactive: -14.5%.
On the same count and under the same terms, the figure for `Cc1ccc(NC(=O)Cn2c(=O)n(Cc3ccccc3)c(=O)c3sc4ccccc4c32)cc1` is inactive: -17.7%.
